Test results reported in PubChem BioAssay AID652104 (National Center for Advancing Translational Sciences (NCATS), 2013).
Several values for one entry are separate records, joined by “and”; a condition that tells them apart may be missing. Equal entries are not always repeated. Screen size: about 410,000 compounds; about 7,200 (1.8%) were called active. Inconclusive results, whose numbers are uncertain, are shown with a selection of clear calls. Calls follow the shape of the dose curve; as a rule, active = well fitted activation curve with a large enough effect; inconclusive = small, poorly fitted or top-dose-only effect, or another doubt; inactive = no such curve, though single readings can be large or run the other way. Potencies beside an inconclusive call are fits to weak or partial responses and may not hold up.

Assay: qHTS of TDP-43 Inhibitors; also: nearly all actives have a fitted effect of over 50% in size; as to growth rescue (activation): % of control where 0% means no effect
Details: TDP-43 expressing yeast growth rescue, BacTiter-Glo, 24 h; growth rescue (activation): at 46.1 µM (top of the series) unless noted
Outline: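 Growth rescue of TDP-43-toxic yeast measured as ATP luminescence (BacTiter-Glo). Cells grown to mid-log in raffinose, induced in galactose at OD600=0.02, exposed to compound 24 hr at 30 deg C.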
Potency is read from the fitted curve at half-maximal effect; tags tell the direction and shape of the fitted curve.

SMILES | growth rescue (activation) | Potency
CCOC(=O)c1cc2c(=O)n3ccccc3nc2n(CCCOC)c1=NC(C)=O | inactive: -2.02% | 
COc1cc(SC)ccc1C(=O)NCCOc1c(C)cc(C)cc1C |  | inconclusive: 31.6 µM [activator, single point]
O=C(Nc1nnc(-c2ccco2)o1)c1ccc(Cl)s1 |  | inconclusive: 14.1 µM [activator, single point]
CS(=O)(=O)N(CC(=O)Nc1ccc(Br)cc1)c1ccccc1Br |  | inconclusive: 22.4 µM [activator, single point]
Cc1ccc(CNc2ccc([N+](=O)[O-])cc2C(N)=O)cc1 |  | inconclusive: 35.5 µM [activator, partial curve]
O=C(COC(=O)CCCN1C(=O)c2cccc3cccc(c23)C1=O)Nc1ccc(Cl)cc1 |  | inconclusive: 2.24 µM [activator, partial curve]
O=S(=O)(Nc1ccc2ccccc2c1)N1CCCCC1 |  | inconclusive: 28.2 µM [activator, single point]
Cc1ccc(C)c(NC(=O)Cn2c(=O)nc(-c3ccccc3)c3ccccc32)c1 | inactive: 0% | 
COc1ccc(S(=O)(=O)N2CCOC23CCN(C(=O)c2ccc(Cl)cc2Cl)CC3)cc1 |  | inconclusive: 12.6 µM [activator, single point]
CCCN(CCC)c1nc2ccccc2nc1C(C#N)C(=O)OC(C)COC (configuration not stated) |  | inconclusive: 0.562 µM [activator, full curve, poor fit]
CCCCCCCCN1C(=O)[C@H](CC(=O)N2CCOCC2)C[C@@]2(C(=O)OC)CC(C)(C)CC=C12 |  | inconclusive: 17.8 µM [activator, single point]
CC(=O)c1cc(C#N)c(SCCC(C)C)nc1C |  | inconclusive: 12.6 µM [activator, single point]
Cn1ccc2c(/C=C/c3ccc(F)cc3)cc3c(c21)C1CCC3C1 (configuration not stated) |  | inconclusive: 6.31 µM [activator, full curve, poor fit]
COc1ccc(N2CCN(C(=O)C3Cc4ccccc4CN3C(=O)c3ccccc3)CC2)cc1 (configuration not stated) |  | inconclusive: 35.5 µM [activator, single point]
O=S(=O)(NCc1c(Cl)cccc1Oc1ccccc1)c1ccccc1 |  | inconclusive: 15.8 µM [activator, single point]
CC1CCCN(C(=O)COC(=O)/C=C/c2ccc(C(F)(F)F)cc2)C1 (configuration not stated) |  | inconclusive: 35.5 µM [activator, single point]
O=C(OCCOCCOC(=O)Oc1ccccc1)Oc1ccccc1 |  | active: 14.1 µM
O=S(=O)(c1ccccc1)N1CCN(c2cccc(Cl)c2)CC1 |  | inconclusive: 10 µM [activator, single point]
CCCCn1cc(SCC(=O)O)c2ccccc21 |  | inconclusive: 22.4 µM [activator, single point]
CC1CCc2sc(C(=O)N(C)CC(=O)Nc3cccc(F)c3)cc2C1 (configuration not stated) |  | inconclusive: 8.91 µM [activator, partial curve]
O=C(NC(=S)NC1CCCc2ccccc21)c1ccco1 (configuration not stated) |  | inconclusive: 35.5 µM [activator, single point]

SMILES | growth rescue (activation) | Potency
COc1ccc2c(CC(=O)OCC(=O)Nc3ccc4c(c3)OCO4)coc2c1 |  | inconclusive: 15.8 µM [activator, single point]
CCc1ccc(NC(=O)CSc2ccc(-c3ccccn3)nn2)cc1 |  | inconclusive: 20 µM [activator, partial curve]
CCOC(=O)c1ccc(NC(=O)CCn2c(=O)c3cccn3c3cccnc32)cc1 | inactive: 4.65% | 
CCc1cccc(NS(=O)(=O)c2ccc(-n3cccn3)cc2)c1 |  | inconclusive: 20 µM [activator, partial curve, poor fit] and inconclusive: 14.1 µM [activator, single point]
COc1cccc(C(=O)Nc2cccc(-c3cn4ccsc4n3)c2)c1OC |  | active: 12.6 µM
O=C(O)c1cccc(-c2nnn(Cc3ccccc3)n2)c1 |  | inconclusive: 35.5 µM [activator, single point]
Cc1cc(C)c(C#N)c(N2CCSCC2)n1 | inactive: 7.07% | 
OC(Cn1cncn1)(c1ccc(F)cc1)c1ccc(Cl)cc1 (configuration not stated) |  | inconclusive: 10 µM [activator, partial curve]
CCn1cc(C(=O)N2CCN(c3cccc(Cl)c3)CC2)c2cc(OC)c(OC)cc2c1=O |  | inconclusive: 35.5 µM [activator, partial curve, poor fit]
Cc1cc(C)nc(NC(=O)Cc2ccc(Cl)cc2)c1 |  | active: 17.8 µM
Cc1cc(C)nc(N(C#N)CCOc2ccccc2)n1 |  | active: 12.6 µM
C/C=C/C1=CC(=O)C[C@H](c2ccc(F)cc2)C1 | inactive: -26.4% | 
COc1ccc(-c2nc3ccc(Cl)cn3c2Cc2ccccc2C(F)(F)F)cc1OC |  | inconclusive: 25.1 µM [activator, single point]
CSc1ccc(NC(N)=S)cc1 |  | inconclusive: 14.1 µM [activator, partial curve, poor fit]
C#CCSc1nc(-c2ccccc2)cc(-c2ccccc2)c1C#N |  | inconclusive: 8.91 µM [activator, partial curve, poor fit]
O=C(c1cc(F)ccc1F)C1CCCN(C(=O)c2ccc3nccnc3c2)C1 (configuration not stated) |  | inconclusive: 31.6 µM [activator, single point]
O=C(NCCc1ccccc1F)C1C(=O)Nc2ccccc2C(=O)N1C1CCCCC1 (configuration not stated) |  | inconclusive: 35.5 µM [activator, single point]
COc1ccccc1-c1cc2nc(C)c(CCC(=O)O)c(C)n2n1 | inactive: 12.8% | 
CCC/C=C/c1ccc(CN2C(C)C(=O)N(Cc3cn(CCC4OCCO4)nn3)CCS2(=O)=O)cc1 (configuration not stated) |  | inconclusive: 6.31 µM [activator, single point]
CC(C)(C)OC(=O)NCCCC[C@H](NC(=O)c1nc[nH]c1C(=O)N[C@@H](CCCCNC(=O)OC(C)(C)C)C(=O)OC(C)(C)C)C(=O)OC(C)(C)C | inactive: 20.3% | 
CCN(CC)S(=O)(=O)c1ccc(C)c(NC(=O)COc2ccc3c(C)cc(=O)oc3c2)c1 | inactive: 5.81% | 
